In PubChem BioAssay AID1963576 (National Center for Advancing Translational Sciences (NCATS), 2024):
The campaign covered roughly 46,000 compounds. About 60 (0.1%) were called active. Another 3% or so got no clear call; they are omitted. Calls come from the whole dose curve; as a rule, active = well fitted inhibition curve with a large enough effect; inconclusive = small, poorly fitted or top-dose-only effect; inactive = no such curve, though single readings can be large or run the other way. The list shows a part of the results.

Assay: Primary qHTS assay for Inhibitors of ovarian cancer metastasis using an organotypic tumor microenvironment (TME) model.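 For activity change, negative = inhibition: plate controls were DMSO wells for no effect and tomatine positive control wells for full effect.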 Note: nearly all actives have a fitted effect of over 65% in size.
Conditions: SKOV3ip1-GFP adhesion/invasion on 3D omental model, fluorescence; series mostly up to 45.8 µM; activity change, negative = inhibition: at the top concentration
Method in brief: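 qHTS, 4-pt dose (0.36-46 umol/L); SKOV3ip1-GFP, 1,200 cells/well, no FBS; primary omental fibroblast/mesothelial co-culture 48 h pre-grown; 2 h RT + 16 h 37 C; PBS wash, 4% PFA; GFP count 488/509 nm.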

Activity change, negative = inhibition, inactive:
Cc1cc(=O)[nH]c2nnc(SCc3cccc(F)c3)n12 0.415%
O=c1c2oc3ccccc3c2n(Cc2ccccc2F)c(=O)n1Cc1ccco1 2.22%
Cc1c(CNCCCc2ccccc2)c(C(=O)O)c(C)n1Cc1ccc(Cl)cc1 1.63%
Cc1ccc(N2CCN(C(=O)c3nn(C)c4c3CS(=O)(=O)c3ccccc3-4)CC2C)cc1 (centres undefined) 2.08%
CCOc1ccc(-c2ccc(NS(=O)(=O)c3cc(C)ccc3OC)cc2)nn1 1.61%
CCS(=O)(=O)c1c(Nc2ccc(F)c(Cl)c2)sc(C(=O)c2ccccc2)c1N -9.1%
Cc1[nH]c2ccccc2c1CCNCc1ccc(C=CC(=O)NO)cc1 17.4%
CC1CCN(S(=O)(=O)c2ccc3c(c2)N(CC(=O)Nc2ccc(F)c(Cl)c2)C(=O)CO3)CC1 -4.46%
COc1ccc(-c2nc3ccc(C(=O)NCc4ccc(C)cc4)cc3nc2-c2ccc(OC)cc2)cc1 11.3%
Cc1cc(=O)[nH]c(SCC(=O)N2CCN(c3ccccc3)CC2)n1 12.2%
COc1ccc(Cl)cc1-n1c(CCC(=O)O)ccc1-c1ccc(C)cc1 -12%
O=C(CC1N=C2c3ccccc3N=C(SCc3ccccc3Cl)N2C1=O)NC1CCCCC1 (centres undefined) 7.58%
Cc1ccc(OCCn2c(COc3ccc(Cl)cc3)nc3ccccc32)cc1 0.713%
CCOC(=O)c1sc(NC(=O)c2nc3nc(C)cc(C(F)F)n3n2)c(C(=O)OC)c1C 8.13%
CC1CCN(C(=O)c2ccc(NC(=O)c3nsc4ccccc34)cc2)CC1 -9.09%
CCc1ccccc1NC(=O)Cn1c(=O)ccc2cc(S(=O)(=O)N3CCC(C)CC3)ccc21 -0.358%
Cc1cccc(N2CCN(S(=O)(=O)c3c(C)nc4scc(C)n4c3=O)CC2C)c1 (centres undefined) -18.6%
COc1ccc(N2C(=O)CCSC23C(=O)N(Cc2ccc(F)cc2)c2ccccc23)cc1Cl (centres undefined) 2.86%
COc1cccc(NC(=O)N2CCC(CN3CCOCC3)CC2)c1 4.69%
CCC(C)NC(=O)Cn1cnc2sc(C)c(S(=O)(=O)N3CCN(c4ccccc4OC)CC3)c2c1=O (centres undefined) -9.76%
Cn1nc(C(=O)Nc2ccccc2C#N)c2c1-c1ccccc1SC2 5.97%
Cc1ccc(NC(=O)CN2C(=O)C(C)(C)c3cc(S(=O)(=O)N4CCCCC4)ccc32)c(Br)c1 8.61%
COc1cccc(-c2cc(C(=O)Nc3cccnc3Cl)no2)c1 -0.4%
CCOc1cccc(C2c3c(oc4cc(C)c(C)cc4c3=O)C(=O)N2c2nc(C)c(C)s2)c1 (centres undefined) 4.69%
O=C(NC1CC(=O)N(c2ccc(Cl)cc2)C1)C1CCCCC1 (centres undefined) 8.1%
CCOc1ccc(NC(=O)CSc2nc3ccccc3c(=O)n2CCC(=O)NC2CCCCC2)cc1 0.987%
COc1ccc(NC(=O)CN(C)S(=O)(=O)c2cnc[nH]2)cc1 6.83%
COc1cc(C(=O)NCCSc2c(C)[nH]c3ccccc23)cc(OC)c1OC -9.05%
O=C(COC(=O)c1cc(-c2cccs2)nc2ccccc12)c1ccc(Cl)cc1 0.232%
CCc1ccccc1NC(=O)[C@H](Cc1ccccc1)N1Cc2ccccc2C1=O 8%
COC(=O)c1c(NC(=O)/C(C#N)=C/c2ccc(OC)cc2)sc2c1C(C(=O)OC)CC2 (centres undefined) 0.342%
COc1ccc(-c2noc(C3CC(=O)N(c4ccc5c(c4)OCCO5)C3)n2)c(OC)c1 (centres undefined) -2.38%
CC(=O)c1cc2c(cc1N/C(=N/S(=O)(=O)c1ccc(C)cc1)c1ccc(Cl)cc1)OCO2 -27.9%
CCOc1ccc(NC(=O)c2oc3ccccc3c2NC(=O)C(C)Oc2ccccc2)cc1 (centres undefined) -12.6%
CC(C)Cn1c(SCc2cccc(F)c2)nc2ccsc2c1=O -9.56%
Cc1ccc(C)c(CN2C(=O)c3ccccc3S(=O)(=O)c3ccc(C(=O)N4CCN(Cc5ccccc5)CC4)cc32)c1 3.58%
Cc1cccc(C)c1NC(=O)CSc1nccn1C 0.146%
CC(NC(=O)c1c(O)nc2ccccn2c1=O)c1ccccc1 (centres undefined) -14.2%
CCOc1ccccc1N1CC(c2nc3ccccc3n2CCCCOc2ccccc2)CC1=O (centres undefined) -10.7%
CCOCCCn1c(SCC(=O)Nc2ccccc2OC)nc2c(oc3ccccc32)c1=O 44.3%
COc1ccccc1C1=Nn2c(nc3sc(C(=O)Nc4ccccc4Cl)c(C)c3c2=O)SC1 4.48%
CCN(C(=O)CCS(=O)(=O)c1cc(Br)cc2c1N(C(=O)C1CC1)CC2)c1cccc(C)c1 14.5%
COc1ccc(-c2cn3c(n2)sc2cc(C(=O)NCc4ccccc4)ccc23)cc1 6.73%
Cc1c(C(=O)N(C)C)sc2c1c(=O)n(-c1ccc(F)cc1)c(=O)n2Cc1cc(=O)n2ccccc2n1 1.92%
COc1cccc(CNC(=O)C2Cc3cc(S(=O)(=O)N4CCCCCC4)ccc3N2C(C)=O)c1 (centres undefined) 9.02%
COc1ccc(CC(=O)NCc2ccc3c(c2)CCN3C(C)=O)cc1OC -1.48%
CCN(CC)S(=O)(=O)c1ccc2c(c1)c(=O)c(C(=O)NCc1ccc(Cl)cc1)cn2C 9.88%
CCc1cc2c(cc3c(=O)n(CC(=O)N4CCC(C)CC4)nc(CC)n32)s1 -9.55%
Cn1nc(C(=O)N2CCN(c3cccc(Cl)c3)CC2)c2c1-c1ccccc1S(=O)(=O)C2 2.57%
Cc1nc2c(-c3ccccc3)c(C)nn2c(C)c1CCC(=O)N1CCN(c2ccccc2)CC1 4.35%
CCC(=O)N1CCc2cc(Br)cc(S(=O)(=O)N3CCCC(C(=O)NCc4cccc(OC)c4)C3)c21 (centres undefined) 11%
CC(=O)N1CCCc2ccc(NS(=O)(=O)c3ccc(C)c(C)c3)cc21 -1.54%
O=C1CCc2cc(S(=O)(=O)NCc3ccc(F)cc3)cc3c2N1CC3 23%
Cc1ccc(Cc2nc3ccccc3nc2SCC(=O)N2CCN(c3ccccc3F)CC2)cc1 8.64%
CCCCOc1ccc(C(=O)NCC2(N3CCN(C)CC3)CCCCC2)cc1 8.57%
O=C(Nc1nnc(S(=O)(=O)N2CCOCC2)s1)c1cccc(F)c1 18.5%
CCc1ccc(-n2c(=O)c3ccc(C(=O)NCCc4ccccc4)cc3n(CC(N)=O)c2=O)cc1 -18.2%
COc1ccc(OC)c(NC(=O)c2cn3c4c(ccc(Cl)c4c2=O)OC(C)C3)c1 (centres undefined) 4.5%
COc1ccc(Cn2cc(C(=O)c3ccc(OC)cc3)c(=O)c3cc4c(cc32)OCCO4)cc1 4.97%
CC(=O)c1cccc(NC(=O)C(Cc2ccccc2)NS(=O)(=O)c2ccc(Br)s2)c1 (centres undefined) -2.41%
Cc1c2cnn(-c3ccccc3)c(=O)c2c(C)n1CC(=O)NCc1ccccc1Br -3.37%
Cc1ccc2c(c1)C(c1ccccc1)N(C(=O)c1ccc(OC(C)C)cc1)CC(=O)N2 (centres undefined) 1.35%
CN(C)c1ccc(CNC(=O)CCCN2C(=O)CCn3nc(-c4cccn4C)cc32)cc1 7.08%
CCOc1ccc(CNC(=O)CCn2nc(C)c3c(C)n(-c4ccccc4)nc3c2=O)cc1 11.2%
CCN(CCCNC(=O)c1nn(-c2ccc(C)cc2)c(=O)c2c1c1ccccc1n2C)c1ccccc1 -5.73%
COc1ccc(C(=O)Nc2ccc3nc(SCc4ccc(C)cc4)sc3c2)cc1 0.955%
COc1ccccc1OCCCn1c(C2CC(=O)N(c3ccccc3Cl)C2)nc2ccccc21 (centres undefined) -5.33%
Cc1ccc(Cn2c(=O)n(Cc3nc(-c4ccccc4)no3)c(=O)c3cc4c(cc32)OCO4)cc1 -0.0844%

outcome, inactive:
Cc1cccc(NC(=O)Cn2c(=O)n(Cc3ccc4c(c3)OCO4)c(=O)c3ccccc32)c1
Cc1nn(CC(=O)N2CCN(c3ccccc3)CC2)c(=O)c2cc3sccc3n12
CCC(=O)N1CCc2cc(CNS(=O)(=O)c3cc(Cl)ccc3OC)ccc21
COc1ccc(Br)cc1CNC(=O)CCSCc1ccc(Cl)cc1
Cc1ccc(CCNC(=O)CN2N=C(c3ccc(C)cc3)CCC2=O)cc1
Cc1c(C(=O)Nc2cccc(Cl)c2)oc2ccc(S(=O)(=O)N3CCOCC3)cc12
CCOc1ccc(Nc2oc(/C=C/c3cc(OC)c(OC)c(OC)c3)nc2C#N)cc1
COc1ccc(CCNC(=O)CSc2cn(CCNC(=O)c3ccc(OC)c(OC)c3)c3ccccc23)cc1OC
O=C(O)CSc1nc2ccccc2nc1N1CCCCC1
COc1cccc(NS(=O)(=O)c2cc(-c3cnc(C4CC4)o3)ccc2C)c1
Cc1ccc2c(=O)cc(C(=O)Nc3ccc(S(=O)(=O)N4CCCC(C)C4)cc3)oc2c1C (centres undefined)
COc1ccc(C2c3cc(OC)c(OC)cc3CC(=O)N2c2cccc(C#N)c2)cc1 (centres undefined)
Cc1ccc(C)c(C(=O)N2CCC(c3nc4c(nnn4Cc4ccccc4)c(=O)[nH]3)CC2)c1
CC1Cc2cc(S(=O)(=O)CCC(=O)Nc3ccc(OC(F)(F)F)cc3)ccc2N1C(=O)C1CC1 (centres undefined)
COc1ccc(Cc2nc3ccc(C(=O)NCCc4ccc(Cl)cc4)cc3o2)cc1
COc1ccc(OC)c(C2CC(=O)Nc3ccc4ccccc4c32)c1 (centres undefined)
CCOC(=O)C1CCN(C(=O)c2ccc3c(c2)sc2nc(-c4ccccc4)cn23)CC1
COc1ccc(C(=O)COC(=O)c2cc(-c3ccccc3)nc3c(C)cccc23)cc1
CCS(=O)(=O)N1CCc2cc(C(=O)Nc3ccc(C)c(Cl)c3)ccc21
O=C(Nc1ccc(Cl)cc1)N1CCC(CN2CCCC2)CC1
Cc1cccc(CCNC(=O)Cn2ncc3c(=O)oc4ccccc4c32)c1
CCOC(=O)C1CCN(c2nc(-c3ccc(Br)cc3)nc3ccccc23)CC1
Cc1ccc(C)c(N2CCN(C(=O)CCCn3ncn4c(cc5occc54)c3=O)CC2)c1
CCc1ccc(-n2c(=O)c3c(C)c(C(=O)N(C)C)sc3n(Cc3cccc(C)c3)c2=O)cc1
COc1cccc(CNC(=O)CCS(=O)(=O)c2cc3c(cc2C)NC(=O)CO3)c1
COc1c(Cl)cc(Cl)cc1/C=C(\C#N)c1nc2ccccc2[nH]1
